Results from PubChem BioAssay AID2202238 (Ras Initiative Chemistry Research Team, Frederick National …, 2025).
Some of the results follow. These are further read-outs of the screen, such as a control signal, another cell line or another target. No call is given for them.

Molecular target: GTPase KRas (Homo sapiens) (UniProt P01116)
Test: Cysteine mutants labelled by reactive fragments (mass read-out) (AID 2202238)
Parameters: protein at 5 µM with 500 µM competing thiol for 1.5 h
Conditions: KRAS G12D cysteine mutants, disulfide tethering, MALDI-TOF labeling, stronger effect = higher value, fragment at 500 µM
[1] = measured here: G60C mutant labeling
[2] = measured here: G75C mutant labeling
[3] = measured here: H94C mutant labeling
[4] = measured here: I36C mutant labeling
[5] = measured here: L120C mutant labeling
[6] = measured here: M67C mutant labeling
[7] = measured here: M72C mutant labeling
[8] = measured here: N26C mutant labeling
[9] = measured here: N86C mutant labeling
[10] = measured here: P121C mutant labeling
[11] = measured here: S122C mutant labeling
[12] = measured here: S136C mutant labeling

UniProt P01116, sequence (P01116 whole entry, looked up, the tested form may be a part): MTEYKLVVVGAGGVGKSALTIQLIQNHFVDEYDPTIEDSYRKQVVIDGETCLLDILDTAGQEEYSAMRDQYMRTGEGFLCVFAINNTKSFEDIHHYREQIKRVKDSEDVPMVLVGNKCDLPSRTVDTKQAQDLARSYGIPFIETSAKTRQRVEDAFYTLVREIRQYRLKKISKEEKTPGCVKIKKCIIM

SMILES	percent labeling [1]	percent labeling [2]	percent labeling [3]	percent labeling [4]	percent labeling [5]	percent labeling [6]	percent labeling [7]	percent labeling [8]	percent labeling [9]	percent labeling [10]	percent labeling [11]	percent labeling [12]
Cc1cc(=O)c(C(=O)NCCS)nn1-c1ccccc1F	45.2%	20.6%	38.2%	33.1%	53.5%	40.2%	48.3%	41.6%	26%	28.6%	29.2%	72.7%
CCOC(=O)c1nn(-c2ccccc2)c2c1CN(C(=O)CCS)CC2		7.9%	18%	11.8%	11.4%	22.4%	22.8%		8.6%	12.3%	8.6%	49.3%
O=C(CCS)NCC12CCC(CO)(CC1)OC2		6.2%	26.9%	31.9%	26.1%	28.4%	9.2%		16.7%	29.5%	34.4%	41.6%
O=C(CCS)Nc1ccc(OCc2ccccc2)nc1		4.5%	6.9%	17.5%	12.2%	26.6%	22.1%		4.6%	10%	10.3%	17.5%
CC(Cn1cnc2c(cnn2C)c1=O)NC(=O)CCS (stereo not drawn)		6.9%	29%	41.1%	24.8%	42.5%	11.6%		25%	38.4%	30%	50.2%
CCc1nc2nccc(C(=O)NCCS)c2[nH]1	19.6%	19.4%	19.4%	17%	14%	25.4%	32.5%	34%	11.1%	9.3%	10.7%	36%
O=C(CCS)NCc1cccc(C(F)F)c1		18.7%	38.9%	40.9%	26.1%	38.5%	35.2%		34%	34%	33.9%	49.9%
O=C(NCCS)c1ncn2cc(Cl)ccc12	17.2%	16.6%	24.5%	13.1%	32.1%	10.3%	38.7%	28.1%	8.3%	22.5%	12%	31%
Cc1nn(C)c2ncc(NC(=O)CCS)cc12		13%	21.2%	21.3%	23.4%	20.3%	34.5%		18.2%	21.4%	17.9%	41.7%
O=C(CCS)Nc1ccc(-c2ccccc2)cc1F		6.1%	13.5%	30.5%	15.5%	11.4%	60.4%		21.8%	14.2%	12%	39.5%
Cc1[nH]cnc1C(=O)NCCS	0%	0%	4.7%	6.1%	6.7%	6.1%	4%	6.4%	3.7%	4%	5.6%	8.9%
CC1(C)CCc2onc(C(=O)NCCS)c2C1	27.8%	17%	24.4%	13.3%	22.4%	12.2%	57.7%	27.3%	13.7%	15.1%	11.8%	30.1%
O=C(NCCS)C1CCCN1c1ncnc2ccccc12 (stereo not drawn)	34.8%	12.9%	32.1%	31.8%	37.2%	32.8%	28%	38.9%	26.6%	27%	23.3%	36.8%
O=C(CCS)NCc1cccc(OCc2ccccc2)c1		8.2%	19.4%	20.9%	14%	20.6%	30.4%		15.6%	14.2%	15%	25.6%
Cn1cnc(-c2ccc(C(=O)NCCS)cc2)n1	26%	15.1%	21.5%	19.1%	23.2%	26.5%	34.1%	44.8%	33.8%	19.2%	25%	34.2%
O=C(NCCS)c1ccc(-c2csnn2)cc1	6.1%	5.7%	6.1%	5.7%	0%	5.4%	34.4%	19%	0%	0%	11.4%	12.8%
Cc1nn(C)c(NC(=O)CCS)c1-c1ccccc1		22.2%	43.6%	42.2%	34.9%	45%	38.8%		19.9%	33.8%	31.9%	55.8%
Cc1c(C(=O)NCCS)ccn1Cc1ccccc1	30.4%	12.9%	20.9%	12.2%	26.5%	24.4%	29.3%	24.3%	9.5%	16.2%	13.4%	22.1%
Cc1nn(C)cc1C1CCCN1C(=O)CCS (stereo not drawn)		9.3%	27.2%	32.5%	18%	30.5%	13%		15.3%	25.3%	33.2%	46.4%
COc1cccc(Br)c1C(=O)NCCS	56.9%	23%	43.7%	28.6%	43.9%	40.1%	47.8%	44.1%	43.4%	41.5%	34.6%	51.4%
Cc1cn(C(C)(C)C(=O)NCCS)nc1C(F)(F)F	37%	10.3%	26%	17.8%	35.8%	25.1%	22.6%	30.8%	20.4%	24.8%	22.9%	33.9%
COc1ccc(Br)c2c1C(NC(=O)CCS)CC2 (stereo not drawn)		11.8%	25.8%	27%	13.7%	20.9%	28.4%		18.5%	19.7%	8.7%	34.7%
Cn1ncc(C(F)(F)F)c1CNC(=O)CCS		11.7%	30.5%	38.2%	32.9%	30.3%	19.8%		23.4%	33.2%	40.2%	48.7%
Cc1nc2cc[nH]n2c(=O)c1CC(=O)NCCS	26%	15.6%	26.7%	29.5%	57.3%	25.8%	22.3%	36.5%	34.4%	26.7%	33.4%	41.8%

SMILES	percent labeling [1]	percent labeling [2]	percent labeling [3]	percent labeling [4]	percent labeling [5]	percent labeling [6]	percent labeling [7]	percent labeling [8]	percent labeling [9]	percent labeling [10]	percent labeling [11]	percent labeling [12]
Cc1cc(C(=O)NCCS)c2nccc(C)c2c1	31.5%	44.7%	17.9%	6.3%	14.9%	15.9%	60.2%	36.2%	13%	13.1%	9.1%	21.2%
O=C(NCCS)c1cc2ccc(F)cc2s1	24.1%	10.7%	8.3%	13.3%	7.8%	4.5%	38.3%	24.2%	6.7%	8.6%	7.9%	10.9%
Cc1ccc(C)n1-c1sccc1C(=O)NCCS	3.3%	3.2%	7.1%	5%	9.4%	6.4%	0%	7.4%	7%	8.3%	7.2%	8.1%
CCc1nn(CC(=O)NCCS)c(=O)c2cc3sccc3n12	9.2%	0%	5.7%	7.7%	13.2%	6.2%	17.4%	12%	4.7%	5.2%	4.1%	8.4%
CN(Cc1cc(F)ccc1Oc1ccc(F)cc1Cl)C(=O)CCS		24.7%	29.7%	24.1%	17.1%	13.8%	42.5%		17.3%	16.8%	6.8%	47%
Cc1nc2nc(C(F)(F)F)nn2c(C)c1CCC(=O)NCCS	34.9%	13.4%	32%	31.9%	16.9%	30.8%	19.6%	30%	13.5%	31.6%	19.7%	38%
O=C(NCCS)C1CCC(N2CCOCC2)CC1 (stereo not drawn)	29.9%	12.2%	34%	28.5%	32.3%	37.7%	11.5%	39.2%	25.6%	28.3%	26.2%	45.5%
CC(=O)Nc1c(Cl)ccc(C(=O)NCCS)c1Cl	31.8%	11%	35.3%	25%	33.6%	34.7%	22.6%	39.2%	33.4%	41.8%	33.1%	45%
O=C(CCS)NCc1ccc(-c2cccnc2)c(F)c1		22.2%	32.8%	40.6%	35.1%	37.7%	52.6%		21.2%	28.1%	28.1%	36.5%
O=C(Nc1cccc2c1CCCN2C(=O)CCS)NC1CCCCC1		7%	13.8%	9.8%	10.5%	15.9%	17.7%		14.1%	12.3%	9.2%	30.6%
O=C(CCS)Nc1ccc(Cl)cc1-c1nn[nH]n1		39.8%	44.2%	36.5%	50.8%	36.4%	77.1%		42.4%	42.1%	54.8%	50.4%
O=C(CCS)Nc1ccc(-c2n[nH]c3c2CCCC3)cc1		6.3%	17.8%	34%	15.7%	12.7%	69.7%		14.3%	11.9%	9.4%	26%
O=C(CCS)Nc1cccnc1OCC(F)(F)F		9.5%	41.4%	23.4%	26.2%	29.3%	16.1%		14.6%	23.6%	29.8%	52.1%
Cn1cc(N2CC(C(=O)NCCS)CC2=O)cn1 (stereo not drawn)	22.3%	10.8%	27.5%	23.3%	37.1%	27.9%	12.4%	35.9%	24.4%	30.2%	28.3%	35.7%
CCCC(CC1CCCCC1)C(=O)NCCS (stereo not drawn)	39.7%	14%	11%	8.3%	14.5%	13.9%	24.9%	27.5%	2.9%	13.2%	9.2%	22.3%
Cn1c(C2CC2)nn(CC(=O)NCCS)c1=O	19.1%	8.4%	24.9%	23.8%	39.9%	25.8%	19.9%	27.3%	18.8%	30.3%	28.7%	47%
CN(C)C1(C(=O)NCCS)CCOc2ccccc21 (stereo not drawn)	58.2%	20.4%	28.5%	20.3%	26%	29.8%	39.2%	35.2%	23.7%	21.9%	20.5%	60.5%
Cc1ncc(CNC(=O)CCS)n1-c1ccccc1		38.4%	29.3%	43.3%	31%	37.4%	15.2%		8.8%	31.6%	28.7%	56.5%
O=C(CC1c2ccccc2Oc2ccccc21)NCCS	42.4%	14%	15.7%	11.9%	19.1%	11.9%	42.6%	22.6%	11.9%	29.9%	8.7%	13.8%
O=C(CCS)N(Cc1ccco1)Cc1ccco1		10%	24.9%	18%	22.9%	20%	26.4%		18.9%	16.6%	18.7%	49%
O=C(CCS)N1CCC(c2nc(-c3ccncc3)cs2)CC1		18.7%	25.9%	21.7%	25.4%	37.7%	40.9%		18.1%	23%	17.5%	35.5%
COCCc1noc(CC2CCN(C(=O)CCS)CC2)n1		9.5%	32.6%	34.8%	30.4%	35.7%	14.4%		18.8%	31%	34.9%	57.3%
Cc1csc(CC2CCCN2C(=O)CCS)n1 (stereo not drawn)		16.1%	41.4%	37.1%	33.6%	44.7%	29.7%		28.9%	30.8%	34.3%	66%
